We go through 108 compounds from PubChem BioAssay AID1240 (Sanford-Burnham Center for Chemical Genomics, 2008).

Each structure is given as a SMILES string. About 800 (1.6%) of roughly 50,000 compounds showed an effect of 50% or more. The list shows a part of the results.

The assay deals with Bcl-2-like protein 10 (Homo sapiens) (UniProt Q9HD36). Kind of assay: TR3 peptide-Bcl-B binding displacers, biochemical primary FP assay, phenotype converters (AID 1240).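 Further: 0% = Bcl-B with tracer peptide and DMSO and 100% = tracer peptide lacking Bcl-B.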 The conditions noted are these: GST-Bcl-B / FITC-TR3 peptide fluorescence polarization; stronger effect = higher value; compound at 3.75 mg/L. (Polarisation of emitted light reports the rotation of a fluorescent probe.)
Sequence of UniProt Q9HD36 (Q9HD36 whole entry, looked up): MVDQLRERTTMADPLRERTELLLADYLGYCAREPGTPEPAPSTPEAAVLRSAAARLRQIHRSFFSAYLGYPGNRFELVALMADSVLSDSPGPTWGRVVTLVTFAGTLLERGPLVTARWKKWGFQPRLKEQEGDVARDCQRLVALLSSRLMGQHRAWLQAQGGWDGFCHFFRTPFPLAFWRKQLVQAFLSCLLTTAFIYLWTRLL
For `Cc1cc2ncn(CC(O)COc3ccc(Br)cc3)c2cc1C` (stereo not drawn), the displacement was -39.8%.

`O=C1NC(c2ccc(F)cc2)Oc2ccccc21` (stereo not drawn): the displacement is -8.6%.

In the case of `Cc1ccc(C(=O)NCCNc2ccc([N+](=O)[O-])cc2Cl)o1`, the displacement was 1.6%.

On to `COc1ccc(NC(=O)c2ccc(Cc3ccc(C)cc3)o2)cc1`, for which the displacement is 9.5%.

`COCCOC(=O)c1c(C)oc2ccc(OCc3ccccc3F)cc12`: the displacement came out at 15%.

`COc1ccc(OC)c(C2/C(=C(/O)c3ccccc3)C(=O)C(=O)N2c2nc3ccccc3s2)c1` (stereo not drawn): the displacement was -6%.

Turning to `COc1ccc(C2Nc3ccccc3C(=O)N2Cc2ccco2)cc1COc1ccc(NC(C)=O)cc1` (stereo not drawn), the displacement was -5.1%.

In the case of `CN(C)c1c([N+](=O)[O-])cc([N+](=O)[O-])c2cccnc12`, the displacement was 2.9%.

Take `O=C(c1ccc(Cl)cc1)c1ccc2c(c1)OCCCO2`: the displacement is 3.3%.

In the case of `CCN(CC)c1ccc(NC(=O)S(=O)(=O)c2ccccc2)cc1`, the displacement was -1.3%.

Regarding `COc1ccc(/C=C/C(=O)c2cccc(Br)c2)cc1[N+](=O)[O-]`, the displacement was -2.7%.

With `COCCCNC(=O)CN(c1cccc(Br)c1)S(=O)(=O)c1ccccc1`, the displacement was -5%.

For `Cc1cccn2c(=O)c(/C=C3\SC(=S)N(CC4CCCO4)C3=O)c(NCCc3ccccc3)nc12` (stereo not drawn), the displacement was found to be 8.5%.

As to `COc1cc(/C=c2\sc3nc4ccccc4n3c2=O)cc(Cl)c1OCCOc1ccc(Br)cc1`, the displacement is -2.9%.

For the compound `O=C1CSC(c2ccccc2)N1c1ccc([N+](=O)[O-])cc1` (stereo not drawn), the displacement was 7.3%.

As to `CC1=Cc2cc([N+](=O)[O-])ccc2OC12C=Cc1c(ccc3ccccc13)O2` (stereo not drawn), the displacement was determined as 0%.

Turning to `COc1ccc(C2CC(=O)C3=C(C2)Nc2ccccc2NC3c2ccccc2C(F)(F)F)cc1OC` (stereo not drawn), the displacement is -7.1%.

Consider `CC(C)CC(=O)N1CCN(Cc2c[nH]c3ccccc23)CC1`, for which the displacement was -4.2%.

For `O=C(Nc1ccc(Br)c(Cl)c1)c1cccs1`, the displacement was determined as 2.1%.

For `O=C(/C=C/Nc1ccccc1)c1ccccc1`, the displacement came out at 11.9%.

`CCN(CC)CCC(=O)c1ccc(O)cc1`: the displacement turned out to be 5.6%.

Consider `O=C(Nc1ccc([N+](=O)[O-])cc1)c1ccc(Cl)cc1Cl`, for which the displacement was 8.8%.

Consider `Fc1cccc(Cl)c1COc1ccc(/C=N/n2cnnc2)cc1`, for which the displacement amounted to 9.4%.

For the compound `CCOC(=O)c1sc(Nc2ccccc2)nc1-c1ccc([N+](=O)[O-])cc1`, the displacement was -6%.

Regarding `O=[N+]([O-])c1ccc(/C=N\Nc2nc(-c3ccccc3)c3cc(Cl)ccc3n2)o1`, the displacement is -5.3%.

For the compound `CN1C(=O)C(=Cc2ccc(OCc3ccccc3F)cc2)C(=O)N(C)C1=O`, the displacement stood at 9.6%.

Consider `C=CCN=C1CC(C)(C)CC(=O)/C1=C(/O)CCC`, for which the displacement was -2.7%.

As for `COc1ccccc1NC(=O)C1C2C=CC(C3CC23)C1C(=O)O` (stereo not drawn), the displacement is -4.2%.

In the case of `CCOC(=O)C1=C(O)/C(=C/c2ccc(Cl)cc2)SC1=Nc1cccc2ccccc12`, the displacement was -11.7%.

On to `Cc1cc(C)c(/C=N/NS(=O)(=O)c2ccc(Cl)cc2)c(C)c1`, for which the displacement is -9.5%.

As to `COc1ccc(C(=O)N=Nc2c(O)n(CN3CCN(C)CC3)c3ccccc23)cc1`, the displacement was -6.2%.

Take `Cc1ccc(C(=O)N/C(=C\c2cccc([N+](=O)[O-])c2)C(=O)NCC(C)C)cc1`: the displacement was found to be 7.3%.

With `C[n+]1ccc(/C=C/c2ccc(O)cc2)cc1`, the displacement is -7.4%.

`CCOC(=O)c1cccc(NC(=O)c2ccc(Cl)cc2Cl)c1`: the displacement worked out at 5%.

Consider `Cc1ccc2oc(Nc3nc(C)cc(=O)[nH]3)nc2c1`, for which the displacement came to 7.3%.

As to `COc1cc2c(cc1NC(=O)CCC1CCCC1)oc1ccccc12`, the displacement is 6.4%.

`Cc1cccc(OCCSc2nc3ccccc3c(=O)[nH]2)c1`: the displacement stood at 1.8%.

With `COc1cc(-c2nnc3ccc(C(F)(F)F)cn23)ccc1Oc1ccc([N+](=O)[O-])cc1`, the displacement is -9.2%.

For `O=C(NC(NC(=O)c1ccccc1)c1cccc([N+](=O)[O-])c1)c1ccccc1`, the displacement was -1.1%.

In the case of `COc1ccc(-c2nnnn2C)cc1S(=O)(=O)Nc1ccc(C)c(Cl)c1`, the displacement was determined as 8.3%.

Turning to `CCN(CC)c1ccc(N=Cc2ccc(Cl)cc2Cl)cc1`, the displacement was -7.2%.

For `Cc1ccc(C)c(NC(=O)c2cccc(Cl)c2)c1`, the displacement is -5.3%.

Turning to `CC(C)NCC(=O)C12CC3CC(CC(C3)C1)C2`, the displacement was determined as 0.7%.

`C/C(Cn1nnc([N+](=O)[O-])n1)=N/NC(=O)Cc1ccccc1`: the displacement was -2.3%.

Consider `CCOC(=O)C(=CNc1cc(OC)cc(OC)c1)C(=O)OCC`, for which the displacement turned out to be 2.7%.

Regarding `CC(C)(C)NC(=O)c1cc(-c2ccccc2)n(-c2ccccc2)n1`, the displacement came to 0.3%.

`Cc1ccc([N+](=O)[O-])cc1/C=N/NC(=O)CSCC(=O)Nc1ccccc1`: the displacement is -8.1%.

On to `FC(F)(F)c1cccc(Nc2nc(-c3ccncc3)nc3ccccc23)c1`, for which the displacement is 11.1%.

Take `C=CCOc1ccc2c(C)cc(=O)oc2c1C`: the displacement was -8%.

For the compound `CC(C)(C)c1cc(C(c2ccccc2O)N2CCOCC2)cc(C(C)(C)C)c1O` (stereo not drawn), the displacement was -3.1%.

On to `C/C(=N\NC(=O)C(O)c1ccccc1)c1cccc(NC(=O)c2ccco2)c1` (stereo not drawn), for which the displacement was -5.8%.

As to `Cc1ccc2c(c1)NC(c1ccc(C)o1)C1=C(CC(C)(C)CC1=O)N2` (stereo not drawn), the displacement came out at 88.5%.

Take `CCOC(=O)NC(Nc1ccccc1[N+](=O)[O-])(C(F)(F)F)C(F)(F)F`: the displacement is 2.3%.

As for `Cc1nn(-c2nc3ccccc3s2)c(C)c1Oc1ccccc1O`, the displacement was -9.6%.

As for `COC(=O)c1c(C)oc2ccc(OC(=O)c3ccco3)cc12`, the displacement amounted to 11.7%.

For the compound `Cc1cc(C(=O)/C=C/c2ccc(N(C)C)cc2)ccc1[N+](=O)[O-]`, the displacement was -10.3%.

In the case of `COc1ccc(Br)cc1C(=O)Nc1ccc(N2CCOCC2)cc1`, the displacement stood at 8.6%.

For the compound `COc1cc(NC(=O)c2ccc3c(c2)C(=O)N(CC2CCCO2)C3=O)c(C(=O)O)cc1OC` (stereo not drawn), the displacement worked out at 11%.

Turning to `CCC(Oc1ccccc1)C(=O)Nc1cccc(F)c1` (stereo not drawn), the displacement is 10.7%.

As for `COc1ccc(-c2csc(NC(=O)c3ccccc3OC)c2C(=O)O)cc1`, the displacement was -0.3%.

On to `O=C1Nc2ccccc2C1=Cc1nc2ccccc2c(=O)n1-c1cccc2ccccc12`, for which the displacement is -2.3%.

As to `CC(C)Oc1cccc(-c2cc(C(=O)O)c3ccccc3n2)c1`, the displacement was -3.8%.

With `COc1ccc(NC(=O)Nc2ccccc2OC)cc1`, the displacement stood at 3.7%.

As for `COCCCNC(=O)c1ccc(Br)cc1`, the displacement is -10%.

Regarding `O=C(NC(=S)Nc1nc(-c2ccccc2)cs1)c1ccccc1`, the displacement was -5.7%.

`O=C(CCCC(=O)OCC(F)(F)C(F)F)Nc1ccc(NC(=O)CCCC(=O)OCC(F)(F)C(F)F)cc1`: the displacement was found to be 7.8%.

Consider `c1ccc2c(c1)OCC(CSc1nc3ccccc3[nH]1)O2` (stereo not drawn), for which the displacement was -25.1%.

Regarding `CCCCNC(=O)/C(=C/c1ccc(OC)cc1)NC(=O)c1ccc([N+](=O)[O-])cc1`, the displacement was -2.4%.

Take `O=C(Nc1cc(Cl)ccc1C(=O)O)c1ccc2c(c1)C(=O)N(c1ccccc1-c1ccccc1)C2=O`: the displacement is -3.2%.

Consider `O=C1NN=C2C3CCC4CC12CC1(C3)C(=O)NN=C41`, for which the displacement worked out at 4.5%.

For the compound `O=C(O)CCCC(=O)N1N=C(c2ccc(Br)cc2)CC1c1ccco1` (stereo not drawn), the displacement came out at 13.8%.

For `CCOC(=O)c1c(NC(=O)c2ccc(C)o2)sc2c1CCCCCC2`, the displacement was -9.7%.

With `O=C(Nc1ccc(Cl)cn1)C(c1ccccc1)c1ccccc1`, the displacement was -18.5%.

For the compound `CN1CCN(c2cc(=O)n(-c3ccccc3)c3ccccc23)CC1`, the displacement is -2.6%.

Take `O=C(Oc1ccc([N+](=O)[O-])cc1)c1ccc(-c2ccccc2)cc1`: the displacement came to 3.2%.

With `COc1cc(C(=O)Nc2c(-c3ccccc3)c3cc(Br)ccc3[nH]c2=O)cc(OC)c1OC`, the displacement worked out at 10.5%.

For `COc1ccc(N(CC(=O)N2CCOCC2)S(=O)(=O)c2ccc(C)cc2)cc1`, the displacement was 0.2%.

`CCCOc1ccc(C(=O)N2CCN(c3ccc([N+](=O)[O-])cc3)CC2)cc1`: the displacement was 0.8%.

For the compound `On1c(-c2ccco2)nc2c1CCc1nonc1-2`, the displacement turned out to be 15.9%.

As to `COc1ccccc1N1N=C(c2ccc([N+](=O)[O-])cc2)CC1c1ccccc1` (stereo not drawn), the displacement was -4.8%.

Regarding `CCOc1c(C=C2C(=O)NC(=O)NC2=O)cccc1OC`, the displacement was 8.1%.

Take `O=C(/C=C/c1ccccc1)NC(=S)Nc1ccc(Br)cc1`: the displacement is 6.2%.

Turning to `Clc1ccc(-c2noc(COc3ccc4ccccc4c3)n2)cc1`, the displacement came out at 10.5%.

For the compound `O=S(=O)(NCc1ccc2c(c1)OCO2)c1cccs1`, the displacement was -6.7%.

In the case of `O=S(=O)(NCc1ccc2c(c1)OCO2)c1ccc(Br)cc1`, the displacement came out at 38.4%.

As to `Cc1ccc2c(-c3ccc([N+](=O)[O-])cc3)cc(=O)[nH]c2c1`, the displacement is 14.1%.

As for `COC(=O)c1c(C)oc2cc(Br)c(O)cc12`, the displacement was found to be 6.1%.

For `C=CCOc1ccc(/C=c2/sc3n(c2=O)C(c2ccc(OC)c(OC)c2)C(C(=O)OC)=C(C)N=3)cc1` (stereo not drawn), the displacement was 106%.

For the compound `Cc1ccc(S(=O)(=O)NC2=NCN(Cc3ccccc3)CN2)cc1`, the displacement is -0.6%.

As for `O=C(Nc1cccc(F)c1)c1ccc(I)cc1`, the displacement was found to be 7.1%.

With `Cc1ccc(OCC(=O)Nc2ccc(Nc3ccccc3)cc2)c(C)c1`, the displacement is 1.8%.

In the case of `O=C(c1ccc([N+](=O)[O-])cc1)N1CCN(CCCc2ccccc2)CC1`, the displacement was -3.7%.

Take `O=C(N/N=C/c1ccc(/C=N/NC(=O)Nc2ccccc2)cc1)Nc1ccccc1`: the displacement is -8.5%.

Consider `O=C(NCC1CCCO1)c1cc2nc(-c3ccc(F)cc3)cc(C(F)(F)F)n2n1` (stereo not drawn), for which the displacement is -1.9%.

With `COc1ccc2ccccc2c1C=Nc1ccc(Cl)c([N+](=O)[O-])c1`, the displacement was -6.6%.

For `CC1=C(C(=O)Nc2ccc(Br)cc2)C(c2ccccc2F)NC(=O)N1` (stereo not drawn), the displacement is -7.9%.

As to `Cc1occc1C(=O)NCC1CCCO1` (stereo not drawn), the displacement came out at 9.1%.

Regarding `CCOC(=O)c1sc(NC(=O)CN2CCOCC2)c(C(=O)OCC)c1C`, the displacement is -0.6%.

Consider `COc1ccc(N(CC(=O)Nc2ccc(Oc3ccccc3)cc2)S(C)(=O)=O)cc1`, for which the displacement was determined as 6.5%.

With `Cc1ccc(OCCOCCOc2ccc(Cl)cc2/C=C2/SC(=S)NC2=O)cc1`, the displacement is -1.9%.

With `CCC(=O)NC(OCc1ccccc1)(C(F)(F)F)C(F)(F)F`, the displacement worked out at 10%.

As for `COc1cc(/C=C2\C(=O)NC(=O)N(c3ccc(F)cc3)C2=O)ccc1OCc1ccc(C(=O)O)cc1`, the displacement was -1.7%.

For `O=C(CSc1n[nH]c(=O)[nH]c1=O)N/N=C/C=C\c1ccccc1`, the displacement was -3.3%.

Regarding `FC(F)(F)c1nc2ccccc2n1CC#CCn1c(C(F)(F)F)nc2ccccc21`, the displacement is -1.1%.

`O=C(COC(=O)c1ccc(C#Cc2ccccc2)cc1)c1ccc(Br)cc1`: the displacement was determined as 1.7%.

On to `CC(C)CN(CC(C)C)C(=O)/C=C/c1ccccc1`, for which the displacement came to 15%.

For the compound `CC1S/C(=N/N=C/c2ccccc2Cl)NC1=O` (stereo not drawn), the displacement was 1.2%.

On to `O=C(CSc1nnc2c(n1)[nH]c1ccccc12)NCCO`, for which the displacement is -3.3%.
